# Experimental data published in the supplement of paper PMC3724861.
# This is one part of the list.
# Test system: T1, Caupolican (Caup) homeodomain DNA-binding domain
# T1 sequence: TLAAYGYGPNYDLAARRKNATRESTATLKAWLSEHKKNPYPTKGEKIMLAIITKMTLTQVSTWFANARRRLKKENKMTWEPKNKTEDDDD
# Experiment: PBM E-score (8-mer, recovered from the published 9-mer minima) (E-score (dimensionless, -0.5 to 0.5)); Drosophila protein; higher = stronger relative binding preference, active = 0.31 or more
# Outline: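 Caup's homeodomain DNA-binding domain (residues 214-303) was made by in vitro transcription and translation and applied at 100 nM to custom-designed protein binding microarrays. Each value is an enrichment score that gives relative binding preference for a short DNA word, with higher meaning stronger. The 8-mer values were recovered from published 9-mer scores, each of which was the minimum of its two constituent 8-mer scores. A cutoff of 0.31 marks candidate sites.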
row,Sequence,PBM E-score
1,AGATCCGA,inactive: -0.0357
2,GTTACCTA,inactive: 0.128
3,CGAAAACA,inactive: 0.148
4,CAGGCTAA,inactive: -0.0324
5,CTACTAAG,inactive: -0.0581
6,GTAGTCTA,inactive: 0.153
7,CGGTACTA,inactive: 0.0591
8,TGCATACA,inactive: 0.276
9,AGAGCATG,inactive: 0.18
10,AATGTTCT,inactive: 0.241
11,ATCCCGAA,inactive: 0.0196
12,TAAATTGA,inactive: 0.141
13,AGTAAACT,inactive: 0.0679
14,ACCTGAAG,inactive: -0.0739
15,GCGGACGA,inactive: -0.109
16,AGCGCGTA,≥ -0.00798
17,AAATAGGT,inactive: 0.122
18,ACACATTC,inactive: 0.251
19,CACTGAGA,inactive: -0.0389
20,AAATGAGA,inactive: -0.0175
21,AAGTCATG,inactive: 0.223
22,CGGCAGAG,inactive: -0.235
23,AATCGTTG,inactive: 0.0396
24,CCGCAACC,inactive: -0.166
25,AGAGGGAA,inactive: -0.167

row,Sequence,PBM E-score
1,ACACAGAA,inactive: 0.23
2,AACCGGGT,≥ -0.0429
3,GCAGGTCA,inactive: -0.0892
4,CAGGTCAG,inactive: -0.0274
5,AGAATTAA,inactive: -0.022
6,TCCGCCGA,inactive: -0.158
7,AACCGGTT,≥ 0.00831
8,AATGCCAT,inactive: 0.0424
9,GGAAACGA,inactive: 0.0372
10,AAGCAGCC,inactive: -0.169
11,TCATATGA,inactive: 0.172
12,ACGCTCTC,inactive: -0.0806
13,AGAGTGAC,inactive: -0.0692
14,GTAATTAA,inactive: 0.236
15,CTAACGTA,inactive: 0.122
16,GGTATCTA,inactive: 0.0972
17,ACACCACA,inactive: 0.262
18,ACCCTTGC,inactive: -0.101
19,CCTAATGA,inactive: -0.0552
20,CTATGTCA,inactive: 0.307
21,ACTATTGG,inactive: -0.0652
22,ACAACTTG,inactive: 0.271
23,AGGCTTTC,inactive: -0.088
24,CGTTGAGA,inactive: 0.00839
25,AAGAACCT,inactive: -0.0156

row,Sequence,PBM E-score
1,CCCGAGCG,inactive: -0.215
2,GATATAAA,inactive: 0.0268
3,GATTATGC,inactive: 0.00528
4,ACGGCAAC,inactive: 0.0253
5,ATGGAATG,inactive: 0.082
6,ATACAGTC,inactive: -0.00196
7,GGAAATAA,inactive: 0.123
8,AAAAGGGG,inactive: -0.207
9,ATCTTCGC,inactive: -0.0436
10,ACTGTATC,inactive: 0.137
11,AACGCACC,inactive: -0.0904
12,AGCACCTA,inactive: -0.0226
13,CATGACGG,inactive: -0.0266
14,CGGGTTAA,inactive: -0.0452
15,GGGGTGTA,inactive: 0.109
16,CGCCATCA,inactive: -0.0955
17,CGAGATAA,inactive: 0.045
18,TCGTAGAA,inactive: 0.0351
19,ATAGGTGC,inactive: 0.0434
20,CCCCGGCA,inactive: -0.211
21,AGGCATAG,inactive: -0.0487
22,CATTACAG,inactive: 0.226
23,AGGATAGC,inactive: -0.137
24,AAATGGTG,inactive: 0.096
25,TCAACTGA,inactive: 0.118

row,Sequence,PBM E-score
1,ACCGTCTG,inactive: -0.183
2,ACACATGA,inactive: 0.265
3,ATTGATTC,inactive: 0.0795
4,ATAGCGTG,inactive: 0.052
5,CACCTTAC,inactive: -0.0122
6,TAGAAGGA,inactive: -0.0985
7,AGGCTCTG,inactive: -0.121
8,AACAGAAC,inactive: 0.13
9,TATCCAGA,inactive: 0.0313
10,CCGGGCCG,inactive: -0.274
11,GTTCCACA,inactive: 0.0461
12,CGGTCGCA,inactive: -0.202
13,GGGCACCA,inactive: -0.152
14,CTCTCTAC,inactive: -0.0205
15,CCGACACG,inactive: 0.223
16,ATGGGTGA,inactive: -0.0214
17,CACGCCGA,inactive: -0.0882
18,CAAATGGG,inactive: -0.0307
19,CGCAGGCA,inactive: -0.142
20,CCAACCAG,inactive: -0.0712
21,ATACGTAA,inactive: 0.187
22,ATGGTCTC,inactive: -0.0017
23,ATCGAGCA,inactive: -0.0611
24,ACTGGTTC,inactive: 0.104
25,CCGCTGCG,inactive: -0.233

row,Sequence,PBM E-score
1,ACTATTAT,inactive: 0.0917
2,GGAGCCAC,inactive: -0.198
3,AATGTTGT,active: 0.368
4,CTCGCGAG,inactive: -0.129
5,GTCACGTA,inactive: 0.072
6,AATAGATA,inactive: 0.153
7,AGGCACTC,inactive: -0.148
8,GCTTTTCA,inactive: -0.0909
9,CGGCTACA,inactive: 0.0254
10,CTCTCCCC,inactive: -0.236
11,CGTCACGA,inactive: 0.0278
12,AGTAAGTA,inactive: 0.138
13,ACCCTGTC,inactive: -0.0132
14,AATCCGGG,inactive: -0.188
15,CCGGCGAA,inactive: -0.142
16,CGGTCCCA,inactive: -0.214
17,AATGCAAA,inactive: 0.144
18,GATTAACC,inactive: -0.0627
19,CCGCGTCC,inactive: -0.087
20,AGAACGCC,inactive: -0.114
21,AATGTAAT,inactive: 0.303
22,GGCATGAA,inactive: 0.0161
23,CCCCCGTC,inactive: -0.334
24,AATTCTCG,inactive: 0.118
25,ACACCCTG,inactive: 0.105

row,Sequence,PBM E-score
1,ACAAACTA,inactive: 0.228
2,ATTCTTAG,inactive: -0.0516
3,GGCATCTA,inactive: -0.0451
4,GGACGTCA,inactive: -0.0322
5,ACAGTATA,inactive: 0.206
6,CTGTAAAA,inactive: 0.121
7,GCTACTCC,inactive: -0.0924
8,GAAGCTAA,inactive: -0.097
9,AGCTCGAT,inactive: 0.00644
10,GATCTGGA,inactive: -0.0547
11,CGCGCGTA,inactive: -0.121
12,GTCTACCA,inactive: -0.00787
13,TGTCTCAA,inactive: 0.147
14,AACAAATC,inactive: 0.219
15,AGGTTATG,inactive: 0.044
16,GCTATCAA,inactive: -0.02
17,TCTGGCAA,inactive: -0.0834
18,AAAAAATA,inactive: 0.103
19,TATACCAA,inactive: 0.078
20,AGTTCTCA,inactive: 0.0922
21,GTATTGAA,inactive: 0.169
22,CGGCGAAG,inactive: -0.224
23,CCGGAATC,inactive: -0.157
24,CGGGGCAC,inactive: -0.176
25,TGAATGCA,inactive: 0.082

row,Sequence,PBM E-score
1,CGTTCCCC,inactive: -0.199
2,CTACGGCC,inactive: -0.265
3,ACGTATGA,inactive: 0.128
4,GGTAACGA,inactive: 0.0983
5,GGAATCCA,inactive: -0.123
6,ACGATTTA,≥ 0.118
7,AATCCTAA,inactive: -0.0293
8,ACTCAACT,inactive: 0.0816
9,TCCACAAA,inactive: -0.0857
10,AATATCAT,inactive: 0.165
11,AACGTCTG,inactive: 0.00133
12,GAAAGCTA,inactive: -0.0387
13,AGGGGTAG,inactive: -0.168
14,AGACAGTA,inactive: 0.142
15,GATTTTCA,inactive: 0.0992
16,AAGCAGAA,inactive: 0.0117
17,CCTAGTGC,inactive: -0.0537
18,AATTGGGC,inactive: -0.0131
19,CCGCAGGC,inactive: -0.175
20,CATTCGAC,inactive: 0.0787
21,ACCCTACA,inactive: 0.135
22,ACGAGACT,inactive: -0.00093
23,AAGGAGAT,inactive: 0.0194
24,CTAGCAAA,inactive: 0.0422
25,AAGCCACT,inactive: -0.0777

row,Sequence,PBM E-score
1,ACCCCTCC,inactive: -0.121
2,ATTAGGGG,inactive: -0.0877
3,GCCGGGGA,inactive: -0.241
4,GGAGCCAA,inactive: -0.247
5,AACGCGGA,inactive: -0.101
6,GCTACTAA,inactive: 0.0694
7,ATAGCATA,inactive: 0.139
8,CGCCCCCA,inactive: -0.285
9,ACCCGAAC,inactive: -0.0964
10,GAAGAAGC,inactive: -0.158
11,TGCGACAA,inactive: 0.148
12,ATGGTACA,active: 0.32
13,AGGGGTTG,inactive: -0.00316
14,TCCTCCCA,inactive: -0.116
15,CAGTGAGC,inactive: -0.108
16,CCGCCAGG,inactive: -0.211
17,ACTGTAGC,inactive: -0.0122
18,AAAAAAAA,inactive: 0.0105
19,CTCTAGCA,inactive: -0.017
20,CGGCCGTA,inactive: -0.11
21,AATCTTGG,inactive: 0.0351
22,AGGAAGGG,inactive: -0.201
23,AGGTACAC,inactive: 0.297
24,TAGACCCA,inactive: -0.0906
25,GATTATCC,inactive: 0.0409

row,Sequence,PBM E-score
1,CCACGGGA,inactive: -0.103
2,CACCCACA,inactive: -0.0592
3,CAGCGGGG,inactive: -0.286
4,AAAGACGT,inactive: -0.0542
5,CATGGTAG,inactive: 0.121
6,GATACAAA,inactive: 0.213
7,CATTGTAC,active: 0.323
8,CGTATCAC,inactive: 0.101
9,AAAACGGA,inactive: 0.00451
10,ATCCTAAG,inactive: -0.143
11,ACAGCAAC,inactive: 0.118
12,GTTTCCTA,inactive: 0.151
13,GATAGGAA,inactive: 0.0422
14,TGTGACAA,inactive: 0.298
15,GGATTACC,inactive: -0.025
16,ACTTCAGC,inactive: -0.128
17,AGGATCAG,inactive: -0.0645
18,GAGATACA,inactive: 0.231
19,CTGCAATA,inactive: 0.0648
20,TTCCAGAA,inactive: 0.052
21,CTTACCCA,inactive: -0.0604
22,AAGAAATT,inactive: 0.0273
